The values below come from the supplement of paper PMC11417369.

This is one part of the list.

For this experiment, the system named is PfSIP2 AP2 domain 1 (GST-tagged). Put plainly: gcPBM binding intensity (ln(normalized median fluorescence intensity)); higher = stronger DNA binding. In a few lines:
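The highest Masliner-normalised natural-log median intensity across replicate spots of either probe orientation is reported as binding intensity. GST-tagged P. falciparum DNA-binding domains expressed in E. coli were applied for 1 h to an Agilent 4 × 180k array of primer-extended double-stranded 36-bp intergenic genomic probes plus negative controls, and bound protein was detected with Alexa488 anti-GST antibody and scanned at 488 nm.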
For the sequence “AACATAATTAAAAATTGTACAGAATTTCAATCGAAA [XGTACX_site7542]”, the “gcPBM binding intensity (ln)” value stood at 6.76.
The value for “ATAAAAATGTATATATGTACATATATATATATATAT [XGTACX_site1505]” was 9.79; that for “CTTTTTAATTAATACACACACACACCCATATATATA [CACACA_site2292]” was 7.6.
The value for “ATCACTTGAGAATAATTACATTAATATATATTTATG [TGCATGCA_negctrl_site581]” was 6.9.
The value for “CATATACATACACATACACACATACAGACATACACA [CACACA_site6919]” was 7.38; that for “GGGAAAGAACCATATACATGCATATTTACCGTTAAA [TGCATGCA_site519]” was 6.64; that for TGAAATTTTATTAATGTGCACATATATTTATTGTTC was 8.56.
Turning to “TGGGTATATATAAAAGGTACACAAAATGAAGATATA [XGTACX_site4994]”, the “gcPBM binding intensity (ln)” value was 7.25.
The value for “TAATTTCTTATGTATTGTACAAATAATATATTATAT [XGTACX_site1037]” was 7.02; that for “TTTTCTGTGTTTTTGGGTACACACAAATAGCTTGTA [XGTACX_site8553]” was 7.14; that for “ATATGTGTTAAAAATGCACACAAAAAAATATACATA [CACACA_site7988]” was 7.38.
As for “CAATTTTACTCATAAACACACATATATATGTTATTA [CACACA_site3152]”, the “gcPBM binding intensity (ln)” value came out at 6.97.
Take “ATGGTTTAATTATATACACACTCGAAAATAACGACA [CACACA_site3258]”: the “gcPBM binding intensity (ln)” value came to 7.1.
The value for “TGATATTATATTGTGATGCACTTTAAAAATATAAAG [GTGCAC_site9509]” was 10.3; that for “CTTATTTTATTCGAATGTACATAATTGTTAGACATT [XGTACX_site8583]” was 7.16.
As for “AAAAAAAGGATGTACGTATCATAATTTTATTTTATA [CACACA_negctrl_site1543]”, the “gcPBM binding intensity (ln)” value was found to be 6.98.
The value for “TTTTACAAATGTTTTACACACACATAATTGTATCAA [CACACA_site4166]” was 7.01.
The value for “AATAATAACAAATGAACACACATATAGATGAGCAAA [CACACA_site7076]” was 6.81; that for “CTTAAGTAAAATTAAAGTACATGGACAAAAAATATA [XGTACX_site7900]” was 7.2; that for “TATCTCATGCGCACAAAAATATATGCAAAGAGTATA [TGCATGCA_negctrl_site201]” was 8.21.
The value for “TATTGTAGTCATGCACGTACAAAAGGAAAGTTAAAA [XGTACX_site4446]” was 7.24; that for “ATAAATTAATGGAGAAATCTTATGAATTTATTTTAA [CACACA_negctrl_site1068]” was 6.53.
“AAATAAAATATTACATGTACATGTTCATAAAAAAAA [XGTACX_site1067]”: the “gcPBM binding intensity (ln)” value is 6.98.
In the case of “TACATACACAGACACACACACATATATATATATATA [CACACA_site3557]”, the “gcPBM binding intensity (ln)” value stood at 9.82.
The value for “AATAAAAAGGAACACACACACACACCGATATATATA [CACACA_site5895]” was 7.16; that for “AATATATACATATATACACACACATATATTATATAT [CACACA_site7980]” was 7.09; that for “TAAATATAAGTGTACATACACACTTTACAATCTCAT [CACACA_site3006]” was 6.97.
The value for “AAAGAAGAAAAATATAGTACAGGGCACATGTCCTGT [XGTACX_site6293]” was 6.67; that for “AAAAAAAAAAAAATTGCATGTAAATGAAATAATAAA [TGCATGCA_site116]” was 6.89; that for “ATTTAAATTTAAAAAACACACATAATATGATATATA [CACACA_site1973]” was 7.04.
The value for “TTATTTTTATATTTCACACACATATACTTTTACATA [CACACA_site4097]” was 7.28; that for “CCTATAAAACCATATACACACATATATATAAAAAAA [CACACA_site4013]” was 7.21; that for “TGTTTCTAAAAATTTACACACAAAATATTTCTACAT [CACACA_site4098]” was 6.98.
In the case of “TTATACGATAATATGACACACAATACAAAAATGTAA [CACACA_site1918]”, the “gcPBM binding intensity (ln)” value came to 6.89.
The value for “TATATTTTTATGTGTGTGCACAAAATAACAAAATAT [GTGCAC_site9596]” was 9.36; that for ATTATTTTTTTTGAAGTGCAATATTATTTTTAATCA was 8.2; that for “GTTAAGTGGATATATACACACATATGCAATACATGA [CACACA_site7427]” was 6.95.
The value for “TATACTACCCAGAGCTGTACAAAATAATAATAAGTT [XGTACX_site1045]” was 7.06; that for ATGGTTATATTTGAAGTGCAAAAAAAAATATATGTA was 8.55.
The value for “ATGTGGATTTTATAATGTACATATGATATTATTTTG [XGTACX_site7930]” was 7.01.
For “CAATTCAATATATATACACACACACTATTAATAATT [CACACA_site9256]”, the “gcPBM binding intensity (ln)” value amounted to 7.03.
The value for “ATTCCTTTATTATCACGTACTTATAAAATATAGTAT [XGTACX_site7498]” was 7.81; that for “ATAAACAGATAAAAGGGTACACACATATATACATGT [XGTACX_site452]” was 7.08.
The value for “TTATATATATATTGTTCACACATAATATAAATATTT [CACACA_site5835]” was 6.81.
The value for “TTAAATAAAATAAAAACATGCACACTTTATTTTTTT [TGCATGCA_site719]” was 9.94.
